In the supplement of paper PMC12582362:
Where a name gives a salt, the structure may show the parent alone. In all, about 1,500 compounds went through this assay and about 30 (2%) showed activity.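 The calls were made as follows: active = robust z-score below -2; a few such results were not called.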 This is one part of the list.

System: optoTopBP1 Flp-In 293 T-REx (HEK293) cells
Assay: light-induced TopBP1 condensate (nuclear foci) count, plate-normalised robust z-score vs non-control wells; higher = more TopBP1 condensates (negative = condensation inhibitor), active = hit call of the paper
Conditions: 10 µM; incubation time 2 h

SMILES	light-induced TopBP1 condensate (z-score)
CC(C)NCC(O)c1ccc(O)c(O)c1 (single isomer, unassigned; (-)) [(-)-Isoproterenol hydrochloride]	inactive: 1.04
Cc1ccccc1C(OCCN(C)C)c1ccccc1 (stereo not drawn) [Orphenadrine hydrochloride]	inactive: -1.06
C#C[C@]1(O)CC[C@H]2[C@@H]3CCC4=C(CCC(=O)C4)[C@H]3CC[C@@]21C [Norethynodrel]	inactive: 0.785
NS(=O)(=O)c1cc2c(cc1Cl)NC(CC1CCCC1)NS2(=O)=O (stereo not drawn) [Cyclopenthiazide]	inactive: 0.348
CC(C)(C)NCC(O)c1cc(O)cc(O)c1 (stereo not drawn) [Terbutaline hemisulfate]	inactive: 0.791
CC[N+](CC)(CC)CCOc1cccc(OCC[N+](CC)(CC)CC)c1OCC[N+](CC)(CC)CC [Gallamine triethiodide]	inactive: 0.722
CCOC(=O)[N-]c1c[n+](N2CCOCC2)no1 [Molsidomine]	inactive: -0.096
NCc1ccc(S(N)(=O)=O)cc1 [Mafenide hydrochloride]	inactive: -0.165
CN[C@@H]1[C@H](O[C@H]2[C@H](O[C@H]3[C@H](O)[C@@H](O)[C@H](NC(=N)N)[C@@H](O)[C@@H]3NC(=N)N)O[C@@H](C)[C@]2(O)CO)O[C@@H](CO)[C@H](O)[C@H]1O [Dihydrostreptomycin sulfate]	inactive: 0.864
CC/C(=C(\c1ccccc1)c1ccc(OCCN(C)C)cc1)c1ccccc1 [Tamoxifen citrate]	inactive: 0.351
CCc1oc2ccccc2c1C(=O)c1cc(Br)c(O)c(Br)c1 [Benzbromarone]	inactive: 0.386
CC(=O)Nc1ccc(C(=O)O)cc1 [Acedoben]	inactive: -0.512
CCCCC[C@H](O)/C=C/[C@H]1[C@H](O)CC(=O)[C@@H]1CCCCCCC(=O)O [Alprostadil]	inactive: 1.42
CCN1CCC[C@H]1CNC(=O)c1c(O)c(Cl)cc(Cl)c1OC [Raclopride]	inactive: -0.245
CC[C@@H]([C@H](C)O)n1ncn(-c2ccc(N3CCN(c4ccc(OC[C@@H]5CO[C@@](Cn6cncn6)(c6ccc(F)cc6F)C5)cc4)CC3)cc2)c1=O [Posaconazole]	active: -2.52
CN1CCC[C@@H]1CCO[C@](C)(c1ccccc1)c1ccc(Cl)cc1 [Clemastine fumarate]	inactive: -1.27
CCOc1ccc(NC(C)=O)cc1 [Phenacetin]	inactive: 0.209
CC(C(=O)O)c1ccc(C(=O)c2cccs2)cc1 (stereo not drawn) [Suprofen]	inactive: -0.434
COc1cc2ncnc(Nc3ccc(F)c(Cl)c3)c2cc1OCCCN1CCOCC1 [Gefitinib]	inactive: 2.6
COc1ccc(C(=O)c2ccccc2O)c(O)c1 [Dioxybenzone]	inactive: -0.671
CC(C)(C)NC[C@H](O)COc1ccccc1C1CCCC1 [Penbutolol sulfate]	inactive: -0.793
Nc1nc2[nH]cc(CCc3ccc(C(=O)N[C@@H](CCC(=O)O)C(=O)O)cc3)c2c(=O)[nH]1 [Pemetrexed disodium]	inactive: -1.43

SMILES	light-induced TopBP1 condensate (z-score)
CCN1CCN(Cc2ccc(Nc3ncc(F)c(-c4cc(F)c5nc(C)n(C(C)C)c5c4)n3)nc2)CC1 [Abemaciclib]	inactive: -0.486
COc1ccc(CN2CCN(C(c3ccc(F)cc3)c3ccc(F)cc3)CC2)c(OC)c1OC [Lomerizine hydrochloride]	inactive: -0.988
CCc1ccc(C(=O)C(C)CN2CCCCC2)cc1 (stereo not drawn) [Eperisone HCl]	inactive: 1.18
CC(=O)Nc1cccc(O)c1 [Metacetamol]	inactive: -0.0278
Cc1cnc(C(=O)O)c[n+]1[O-] [Acipimox]	inactive: -0.457
O=C(O)[C@H]1/C(=C/CO)O[C@@H]2CC(=O)N21 [Clavulanate potassium salt]	inactive: -0.0843
O=C(OCCOCCO)c1ccccc1Nc1cccc(C(F)(F)F)c1 [Etofenamate]	inactive: -0.564
Nc1ccc(S(=O)(=O)Nc2ccccn2)cc1 [Sulfapyridine]	inactive: 1.16
Nc1ccn([C@@H]2O[C@H](CO)[C@@H](O)[C@@H]2O)c(=O)n1 [Cytarabine]	inactive: -1.9
COc1ccnc(C[S+]([O-])c2nc3cc(OC(F)F)ccc3[nH]2)c1OC (stereo not drawn) [Pantoprazole sodium]	inactive: -0.769
C[C@@H]1C[C@H]2[C@@H]3C[C@H](F)C4=CC(=O)C=C[C@]4(C)[C@@]3(F)[C@@H](O)C[C@]2(C)[C@@]1(O)C(=O)COC(=O)C(C)(C)C [Flumethasone pivalate]	inactive: -0.352
CCOc1ccccc1OC(c1ccccc1)C1CNCCO1 (stereo not drawn) [Reboxetine mesylate]	inactive: -0.228
O=c1[nH]cnc2c1ncn2[C@@H]1O[C@H](CO)[C@@H](O)[C@H]1O [Inosine]	inactive: -0.394
CN(C)CCCN1c2ccccc2Sc2ccc(Cl)cc21 [Chlorpromazine hydrochloride]	inactive: 1.46
CC(=O)[C@H]1CC[C@H]2[C@@H]3CC=C4C[C@@H](O)CC[C@]4(C)[C@H]3CC[C@]12C [Pregnenolone]	inactive: -0.358
COc1ccc(CC2c3cc(OC)c(OC)cc3CC[N+]2(C)CCC(=O)OCCCCCOC(=O)CC[N+]2(C)CCc3cc(OC)c(OC)cc3C2Cc2ccc(OC)c(OC)c2)cc1OC (stereo not drawn) [Atracurium besylate]	inactive: -0.907
CC(C(=O)O)c1ccc2c(c1)CC(=O)c1ccccc1S2 (stereo not drawn) [Zaltoprofen]	inactive: -0.369
CCN(CCO)CCCC(C)Nc1ccnc2cc(Cl)ccc12 (stereo not drawn) [Hydroxychloroquine sulfate]	inactive: -1.68
CCOC(=O)NNc1nncc2ccccc12 [Todralazine hydrochloride]	inactive: 0.699
CCCCN1CCCCC1C(=O)Nc1c(C)cccc1C (stereo not drawn) [Bupivacaine hydrochloride]	inactive: -1.34
CC(COc1ccccc1)NC(C)C(O)c1ccc(O)cc1 (stereo not drawn) [Isoxsuprine hydrochloride]	inactive: -0.14
